From PubChem BioAssay AID588453 (National Center for Advancing Translational Sciences (NCATS), 2011)
Hit rate of the full screen: of about 390,000 compounds, about 4,000 (1%) were called active. The inconclusive results got no clear call from the source; some entries with a clear call stand among them for comparison. The call rests on the fitted dose curve; in most records, active means well fitted inhibition curve with a large enough effect; inconclusive means small, poorly fitted or top-dose-only effect; inactive means no such curve, though single readings can be large or run the other way. A potency beside an inconclusive call is a rough fit, not a confirmed value.

Each molecule was assayed against Thioredoxin reductase 1, cytoplasmic (Rattus norvegicus) (UniProt O89049) (assay: qHTS Assay for Inhibitors of Mammalian Selenoprotein Thioredoxin Reductase 1 (TrxR1): qHTS). Settings: recombinant rTrxR1, NADPH fluorescence consumption, selenite substrate; series mostly up to 114 µM; activity change, negative = inhibition: at the top concentration.
UniProt O89049, sequence (O89049 whole entry, looked up): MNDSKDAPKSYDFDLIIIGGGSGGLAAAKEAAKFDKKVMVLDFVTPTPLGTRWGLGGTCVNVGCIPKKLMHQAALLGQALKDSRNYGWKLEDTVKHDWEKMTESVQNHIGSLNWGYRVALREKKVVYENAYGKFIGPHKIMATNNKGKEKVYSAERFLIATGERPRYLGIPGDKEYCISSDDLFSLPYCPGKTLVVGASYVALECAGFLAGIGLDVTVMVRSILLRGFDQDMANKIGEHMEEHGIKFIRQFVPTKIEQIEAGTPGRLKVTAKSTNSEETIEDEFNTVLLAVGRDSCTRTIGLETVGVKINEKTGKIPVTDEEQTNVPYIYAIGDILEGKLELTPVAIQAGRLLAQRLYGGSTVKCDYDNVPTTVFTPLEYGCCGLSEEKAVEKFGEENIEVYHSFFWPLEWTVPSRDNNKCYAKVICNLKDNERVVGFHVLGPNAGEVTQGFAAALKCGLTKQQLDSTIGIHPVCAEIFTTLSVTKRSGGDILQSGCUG
How it was run: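 Rat TrxR1 (90 nM in the dispensed reagent) was pre-reduced with 400 uM NADPH for 5 min at room temperature, then incubated with compound for 15 min. After 400 uM selenite was added, NADPH fluorescence (Ex 340/Em 450 nm) was followed for 8 min.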
Further: nearly all actives have a fitted effect of over 65% in size.
On the % scale 0 is the no-effect control and ±100 the full control effect; potency means the concentration at half of the fitted maximal effect; tags describe the fitted curve by direction and shape.

SMILES	Potency	activity change, negative = inhibition
Cc1ccc2cc(C3C(C#N)=C(N)Oc4c3ccc3cccnc43)c(=O)[nH]c2c1 (stereo not given)	active: 12.6 µM	
COc1ccc(OC)c(C2C3CN(C(C)C)CC=C3C(C#N)=C(N)C2(C#N)C#N)c1 (stereo not given)		inactive: -26.6%
COc1cc(NC(=O)CCS(=O)(=O)c2nc(-c3ccc4c(c3)OCO4)cc(C(F)(F)F)n2)cc(OC)c1OC	inconclusive: 39.8 µM [inhibitor, partial curve]	
Cc1ccc[n+](/C(C(=S)NCc2ccco2)=C(/[O-])c2ccccc2Cl)c1	inconclusive: 25.1 µM [inhibitor, partial curve, poor fit]	
O=C(CSC1=NCCS1)Nc1ccnc2ccccc12		inactive: 21.4%
O=C(CN1CCN(C(=O)c2ccco2)CC1)N1CCc2[nH]c3ccccc3c2C1	inconclusive: 63.1 µM [inhibitor, partial curve, poor fit]	
Cc1ccc(C(C[N+](=O)[O-])c2c(-c3ccccc3O)[nH][nH]c2=O)cc1 (stereo not given)	inconclusive: 56.2 µM [inhibitor, partial curve]	
CCN1CCN(C(c2ccc(SC)cc2)c2c(O)cc(C)n(Cc3ccco3)c2=O)CC1 (stereo not given)	inconclusive: 12.6 µM [inhibitor, partial curve, poor fit]	
O=C(NC(=S)NC1CCCCC1)c1ccc(F)cc1	inconclusive: 50.1 µM [inhibitor, partial curve, poor fit]	
C/C(=N/NC(N)=S)c1cc2ccc(O)cc2oc1=O	inconclusive: 31.6 µM [inhibitor, partial curve]	
Cc1ccc(-c2n[nH]c(=S)n2C)cc1Cl		inactive: 1.74% [at 57.1 µM]
CC(=O)c1ccc(-c2cc([C@H]3[C@H]4C=CC[C@@H](C)[C@@H]4C(=O)N3Cc3ccccc3)ccc2F)cc1		inactive: -2.9%
Cc1ccc(NC(=S)NNc2ccc([N+](=O)[O-])cc2S(=O)(=O)Nc2ccccc2C(=O)O)cc1C	inconclusive: 20 µM [inhibitor, partial curve, poor fit]	
CC(C)Cn1c(CCCNC(=O)c2ccco2)nc2ccccc21	inconclusive: 89.1 µM [inhibitor, single point]	
Cn1c(/C(C#N)=C(\O)c2ccc(Cl)s2)nc2ccccc21		inactive: 17%
COc1ccc(CNCC(O)COc2ccc(C(C)(C)c3ccccc3)cc2)cc1 (stereo not given)		inactive: 8.36%
CCN(CC(=O)N1CCN(Cc2ccccc2)CC1)S(=O)(=O)c1ccc(F)cc1	inconclusive: 89.1 µM [inhibitor, single point]	
O=C(C[n+]1ccc(C(=O)N/N=C/c2ccc(O)cc2)cc1)c1ccccc1	inconclusive: 56.2 µM [inhibitor, partial curve]	
CC1CN(S(=O)(=O)c2cccc(C(=O)OCC(=O)Nc3ccc4c(c3)OCO4)c2)CC(C)O1 (stereo not given)	inconclusive: 100 µM [inhibitor, single point]	
Cc1ccc(C(=O)/C=C/C(=O)O)cc1	active: 2.82 µM	
Cc1cccc(OCC(=O)N/N=C/C=C/c2ccco2)c1	inconclusive: 50.1 µM [inhibitor, partial curve, poor fit]	
C/C(=C\C(=O)c1ccccc1)Nc1ccc(Cl)c(Br)c1	inconclusive: 70.8 µM [inhibitor, single point]	

SMILES	Potency	activity change, negative = inhibition
COc1cc2[nH]c(=S)nc(Nc3ccc(NC(C)=O)cc3)c2cc1OC	active: 10 µM	
NC(=O)c1c(NC(=O)CN2CCOCC2)sc2c1CCC2	inconclusive: 28.2 µM [inhibitor, single point]	
Nc1nc(-c2ccccn2)nc(N)c1Cc1c(F)cccc1Cl		inactive: 2.81% [at 57.1 µM]
O=C(Cn1c(NCCO)nc2ccccc21)c1ccco1	inconclusive: 79.4 µM [inhibitor, partial curve, poor fit]	
COc1ccccc1N1C(=O)C=C(Sc2nc(C)cc(C)n2)C1=O	active: 2.82 µM	
COc1cccc(C(c2c(C)[nH]n(-c3ccccc3)c2=O)c2c(C)[nH]n(-c3ccccc3)c2=O)c1O	inconclusive: 70.8 µM [inhibitor, partial curve]	
O=C(CS(=O)c1ccc(C(F)(F)F)cc1[N+](=O)[O-])Oc1ccc(Cl)cc1 (stereo not given)	active: 50.1 µM	
CC(=O)N/C(=C\c1ccccc1)C(=O)OCC(=O)N1CCCCCC1		inactive: -9.29%
Cc1cc(C)n2nc(/C(C#N)=C/c3ccccn3)c(C#N)c2n1	inconclusive: 28.2 µM [inhibitor, partial curve]	
CCOc1ccc(CCNC(=O)CN2C(=O)COc3ccc(S(=O)(=O)N4CCCCCC4)cc32)cc1		inactive: -0.324%
Cc1ccc(NC(=O)c2c(NC(=O)Cc3ccccc3)sc3c2CCCC3)cc1		inactive: 22.1%
CCOc1cc(/C=C2\N=C(C)OC2=O)cc(Br)c1OCC(=O)OC	inconclusive: 2.82 µM [inhibitor, partial curve, poor fit]	
CN(C)c1ccc(-c2nnc3n(Cc4ccccc4)c(=O)c4ccccc4n23)cc1		inactive: 20.2%
CCN(c1nc(N)c(C(=O)N=C(N)N)nc1Cl)C(C)C	inconclusive: 26.7 µM [inhibitor, partial curve, poor fit]	
Fc1ccc(C2=Nc3cccc4cccc(c34)N2)cc1	inconclusive: 50.1 µM [inhibitor, partial curve]	
Nc1c(C(=O)N/N=C/c2cccnc2)oc2nc(-c3ccco3)cc(-c3ccco3)c12	inconclusive: 44.7 µM [inhibitor, partial curve, poor fit]	
O=C(CSc1nnc(-c2ccncc2)n1Cc1ccco1)OC1CCCCC1	inconclusive: 22.4 µM [inhibitor, partial curve, poor fit]	
Cc1cc(C)n(CC(O)Cn2c(C)c(C)c3ccccc32)n1 (stereo not given)		inactive: 14.9% [at 57.1 µM]
Cc1ccsc1C1C=C(c2cccc(Br)c2)Nc2ncnn21 (stereo not given)	inconclusive: 50.1 µM [inhibitor, partial curve]	
NC(=O)[C@@H]1CCCNc2c(I)cc([N+](=O)[O-])cc2C(=O)N[C@@H](CCC(=O)O)C(=O)N[C@@H](CO)C(=O)N1	inconclusive: 79.4 µM [inhibitor, partial curve, poor fit]	
COc1ccccc1NC(=O)C(CC=C(Cl)Cl)C(C)=O (stereo not given)	inconclusive: 39.8 µM [inhibitor, single point]	
Cc1cc(Cn2nc(-c3ccccc3)cc2C(=O)NCc2cccc(C(F)(F)F)c2)on1	inconclusive: 39.8 µM [inhibitor, partial curve, poor fit]	

SMILES	Potency	activity change, negative = inhibition
COc1cccc(CC(NC(C)=O)C(=O)NC2CCN(S(=O)(=O)c3ccc(NC(C)=O)cc3)CC2)c1 (stereo not given)	inconclusive: 0.891 µM [inhibitor, full curve, poor fit]	
Cc1c(/C(O)=C2\C(=O)C(=O)N(CCN(C)C)C2c2cccs2)cnn1-c1ccccc1 (stereo not given)	inconclusive: 17.8 µM [inhibitor, partial curve, poor fit]	
COc1ccc(C#Cc2ccc3c(=O)c4ccccc4n(C)c3c2)cc1	inconclusive: 39.8 µM [inhibitor, partial curve, poor fit]	
COc1ccc(Cn2c(/C=C/c3ccccc3)nc3ccccc32)cc1		inactive: 55.2% [at 57.1 µM]
CCOC(=O)C1CCCN(Cc2nc3ccc([N+](=O)[O-])cc3c(=O)n2-c2ccc(OC)cc2OC)C1 (stereo not given)	inconclusive: 89.1 µM [inhibitor, single point]	
CCOc1ccc(NC(=O)C2CCN(S(=O)(=O)c3c(C)noc3/C=C/c3cccs3)CC2)cc1		inactive: 7.9%
Cn1c(=O)oc2cc(S(=O)(=O)N3CCCC(C(=O)NCc4cccs4)C3)ccc21 (stereo not given)	inconclusive: 31.6 µM [inhibitor, single point]	
O=C(CN1C(=O)c2ccccc2S1(=O)=O)c1ccc(F)cc1		inactive: 16.7%
COC(=O)c1ccc2c(c1)C(C)(C)C(/C=C/c1ccc(O)cc1)=[N+]2C	active: 56.2 µM	
Cc1onc(-c2c(F)cccc2Cl)c1C(=O)OCC(=O)NCc1ccco1	inconclusive: 17.8 µM [inhibitor, single point]	
NC(=O)c1c(NC(=O)c2ccc(F)cc2)sc2c1CCC2	inconclusive: 79.4 µM [inhibitor, partial curve]	
C=CCN1C=C2C(=O)C(C)(OC(=O)c3ccc(OC)cc3)C(=O)C(c3ccco3)=C2C=C1CCCC (stereo not given)	active: 7.08 µM	
CC(C)(C)c1ccc(C(=O)N2CCCCCC2=O)cc1		inactive: -5.55%
C=CCN1C(=O)C2(C(C(=O)c3ccc(C)o3)=C(O)C(=O)N2CCCN2CCOCC2)c2ccccc21 (stereo not given)	inconclusive: 39.8 µM [inhibitor, partial curve]	
O=C(O)COc1ccc(Br)cc1/C=C1/SC(=O)N(CC(=O)N2CCCC2)C1=O	inconclusive: 14.1 µM [inhibitor, partial curve, poor fit]	
O=C(COC(=O)c1c2c(nc3ccccc13)/C(=C/c1ccco1)CC2)NC1CCCC1	inconclusive: 39.8 µM [inhibitor, partial curve]	
COc1ccc(C(=O)NCCC(=O)N2CCC3(CC2)NCCc2[nH]cnc23)cc1		inactive: -2.48%
CC(c1ccco1)N(C(=O)c1ccccc1NS(=O)(=O)c1ccc(Cl)cc1)c1ccccn1 (stereo not given)	inconclusive: 56.2 µM [inhibitor, partial curve, poor fit]	
COc1ccc(N2C(=O)/C(=C\c3ccco3)N=C2SCC(=O)NC(C)(C)C)cc1Cl	inconclusive: 56.2 µM [inhibitor, partial curve]	
O=C(NC(N1CCCCCC1)C(Cl)(Cl)Cl)c1ccccc1Cl (stereo not given)	inconclusive: 50.1 µM [inhibitor, partial curve, poor fit]	
CCC(=O)N(CCC(c1ccco1)c1ccccc1OC)Cc1cccs1 (stereo not given)	active: 35.5 µM	
